This assay has as its system HEK293 (human embryonic kidney) cells transfected with empty control vector (pCMV-3Tag-3a). As to the kind of experiment: BrdU incorporation colorimetric ELISA, cells transfected with empty control vector. Particulars: control plasmid, 1 μM cannabinoid, 24 hours, not normalized to cell number (FIG. 2). A general note: Dividing cells build labelled thymidine or BrdU into new DNA.

Each structure is given as a SMILES string.

Consider `C=C(C)[C@@H]1CCC(C)=C[C@H]1c1c(O)cc(CCCCC)cc1O` [Cannabidiol, 2-[(1R,6R)-3-Methyl-6-(1-methylethenyl)-2-cyclohexen-1-yl]-5-pentyl-1,3-benzenediol], for which the “incorporation of BrdU / cell proliferation” value is “does not reduce cell proliferation”.

The values above are taken from patent US20240226120A1 (priority 2020, published 2024).
